Among all 150,000 compounds or so, about 540 (0.36%) showed an effect of 50% or more. The list shows a part of the results.

The record followed here is ChEMBL document CHEMBL4888484, “Replenishing the malaria drug discovery pipeline: Screening and hit evaluation of the MMV Hit Generation Library 1 (HGL1) against asexual blood stage Plasmodium falciparum ,using a nano luciferase reporter read-out” (2022).

The subject of this assay is Plasmodium falciparum. As to the kind of experiment: Primary screen in NF54 nanoGlo assay, in single point, at 2uM, 72h; a lower Z score goes with more inhibition. Type of assay: functional, Erythrocyte. As to conditions: timepoint 72 hour.
The term % Inhibition denotes the drop in the measured response relative to a control, in per cent. For the molecule `CCC(CC)(C(=O)NCc1nccs1)C(=O)OC(C)(C)C`, the “% Inhibition” value is on record as -3% and the Z score stood at 0.5.
For `O=C(CCc1nnc[nH]1)Nc1ccc(-c2cc3ccccc3o2)cc1`, the “% Inhibition” value is reported as -4% and the Z score was found to be 0.89.
Taken in the same sequence, the figures for `CCn1c(CC2CCN(Cc3cc4ccccc4[nH]3)CC2)nn(C)c1=O` were -6% and 0.53.
The matching figures for `CC(C)C(CNC(=O)N1CC[C@](C)(O)C1)C(C)C`: -5% and 0.59.
The matching figures for `COCCOc1ccccc1C(=O)N1CCN(C(=O)OC(C)(C)C)CC12CCCCC2`: -7% and 1.54.
For `O=C(Nc1cccc2cccnc12)C(c1ccccc1)c1ccccc1`, the “% Inhibition” value was -9% and the Z score was 1.44.
The matching figures for `Cn1cc(Cl)cc1C(=O)N[C@@H](CCO)C1CCOCC1`: -5% and 0.77.
Regarding `O=C(Nc1cccnc1)N1CC[C@H](OCCCc2ccccc2)C1`, the “% Inhibition” value is on record as -1% and the Z score came to 0.14.
With `COc1cccc(CC(=O)N2CC[C@H](Cc3ncc(C)n3C(C)C)C2)c1`, the “% Inhibition” value is reported as -2% and the Z score is reported as 0.22.
For the molecule `Cc1cncnc1C1CCN(C(=O)c2ccc(-n3cnnn3)cc2O)CC1`, the “% Inhibition” value is recorded as -14% and the Z score was 1.39.
The matching figures for `Cc1ccc2cnn(C(=O)Nc3ccc4c(c3)OCO4)c2c1`: -8% and 1.56.
Taken in the same sequence, the figures for `COc1ccc(C2CC(c3cccc(Br)c3)N(Cc3ccc(F)cc3)c3nnnn32)cc1` (centres undefined) were 0% and 0.03.
The matching figures for `CC(C)(C)OC(=O)NCC=CCNS(=O)(=O)c1ccc(Cl)cc1`: 3% and -0.57.
For the molecule `COc1ncc(C(=O)NCCN2CC[C@H](c3ccccc3C)C2)cn1`, the “% Inhibition” value is -12% and the Z score was 2.16.
Taken in the same sequence, the figures for `CN(CCCN1CCOCC1)C1CCN(c2ccc(C(=O)O)cc2NC(=O)c2ccccc2)CC1` were -14% and 2.13.
The matching figures for `O=C1CCC[C@H]2[C@@H]3C[C@H](CN(Cc4cccc5nonc45)C3)CN12`: -15% and 2.36.
The matching figures for `COCc1noc(-c2nn(C)c3c2CN(S(=O)(=O)Cc2ccccc2)C3)n1`: -11% and 1.76.
For `O=C(c1ccnn1C1CCC1)N1CC[C@H](c2ccccn2)C1`, the “% Inhibition” value is reported as -6% and the Z score is given as 0.99.
The matching figures for `CCOC(=O)C(NC(C)=O)C(O)c1cccc(N)c1` (centres undefined): -6% and 0.77.
The matching figures for `Cc1cscc1C(=O)N(C)Cc1cnn(C)c1C`: -1% and 0.15.
Taken in the same sequence, the figures for `COc1c(C(=O)Nc2ccccc2)oc2ccc(NC(=O)c3cc(Cl)ccc3F)cc12` were -22% and 2.53.
Turning to `CC(C)OC(C)(C)c1nc(Cn2cnc3ccccc32)no1`, the “% Inhibition” value was found to be 6% and the Z score is reported as -0.78.
As to `CN(C)C(=O)CN1CC[C@H](NC(=O)c2ccccc2N2CCCC2)[C@@H](O)C1`, the “% Inhibition” value is listed as -2% and the Z score amounted to 0.22.
With `COC(=O)[C@H]1CC(=O)N(C2CCN(C(=O)OC(C)(C)C)CC2)C1`, the “% Inhibition” value is -13% and the Z score was found to be 2.47.
The matching figures for `Cc1ccc2[nH]c(N3CCN(S(=O)(=O)c4cccs4)CC3)nc2c1`: 0% and 0.04.
Taken in the same sequence, the figures for `CCN1CCC(CC(=O)N2C[C@H]3CC(C)=CC[C@H]3C2)CC1` were -9% and 0.93.
The matching figures for `CCC(C)(C)C(=O)N1C[C@H](c2nc(-c3ccccc3)no2)[C@@H](C)C1`: -14% and 1.66.
Regarding `CCOc1nccn2c(CNC(=O)c3ccc4c(c3)OCO4)nnc12`, the “% Inhibition” value is reported as -14% and the Z score came out at 2.03.
The matching figures for `Cc1cccc(NC2CCN(C(=O)c3cc(O)cs3)CC2)n1`: 1% and -0.1.
The matching figures for `N=C1C(c2nc(-c3ccc(Cl)cc3)cs2)=C(O)CN1C1CCN(Cc2ccccc2)CC1`: 1% and -0.15.
Taken in the same sequence, the figures for `Cc1nc(N2CCc3[nH]cnc3C2)cc([C@H]2C[C@@H](O)C2)n1` were -6% and 1.18.
As for `CC[C@H]1CCCCN1C(=O)c1ccc2c(c1)NC(=O)CO2`, the “% Inhibition” value was -15% and the Z score worked out at 2.
The matching figures for `O=C(NCC1CCN(c2nc(-c3ccccc3)no2)CC1)c1ccco1`: -6% and 0.72.
`Cc1cc(OCCNCCO)cc(C)c1Cl`: the “% Inhibition” value came out at 4% and the Z score was -0.57.
Taken in the same sequence, the figures for `Brc1cncc2ncccc12` were -7% and 1.27.
The matching figures for `CC(NCCOCC(F)(F)F)C(C)n1cccn1` (centres undefined): -8% and 1.41.
The matching figures for `O=C(NCc1ccccc1Cl)c1ccc2c(cnn2CC(=O)N2CCCCCC2)c1`: -17% and 2.28.
Take `COc1ccc(-n2nc(C)c3sc(N(C)CC(=O)N4CCCCC4)nc32)cc1`: the “% Inhibition” value amounted to 4% and the Z score is -0.52.
For `CCN(CC)C(=O)N1CCC(C(=O)N[C@@H](C(=O)OC(C)(C)C)c2ccccc2)CC1`, the “% Inhibition” value is on record as -5% and the Z score is listed as 0.58.
`CC1(C)CN(CCOCc2ccccc2)CC[C@]1(C)O`: the “% Inhibition” value is recorded as -3% and the Z score is 0.67.
The matching figures for `CC(C)(NC(=O)CC1(O)CCCCC1)C(=O)Nc1ccccc1`: 32% and -4.69.
The matching figures for `COc1ccc(-c2cc3n(n2)CCC(=O)N3Cc2ccc(C(=O)Nc3ccc(F)cc3F)cc2)cc1`: 16% and -1.85.
